Measured values published in the supplement of paper PMC8728848.
This is one part of the list.

Assays:
Assay in all cases: glycan array binding signal (z-score within array); higher = stronger binding
Conditions in all cases: glycan notation: IUPAC condensed, linker removed
[1] = biological target: GlcNAc6S(b1-3)Gal(b1-4)GlcNAc
Outline: (§1)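 The binding signal is a Z-score computed within each array. Data were drawn from 3228 arrays in the Consortium for Functional Glycomics database, restricted to those with a known protein sequence. Scores were averaged over arrays of the same protein sequence at different concentrations or buffers, and over linkers, and negative values can be taken as non-binding.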

[2] = biological target: Kdn(a2-3)Gal(b1-3)GalNAc
Outline: as §1

[3] = biological target: Kdn(a2-3)Gal(b1-3)GlcNAc
Outline: as §1

[4] = biological target: Kdn(a2-3)Gal(b1-4)Glc
Outline: as §1

[5] = biological target: Kdn(a2-3)Gal(b1-4)GlcNAc
Outline: as §1

[6] = biological target: Kdn(a2-3)Gal(b1-4)[Fuc(a1-3)]GlcNAc
Outline: as §1

[7] = biological target: Kdn(a2-6)Gal(b1-4)GlcNAc
Outline: as §1

[8] = biological target: Man(a1-2)Man(a1-2)Man(a1-3)Man
Outline: as §1

[9] = biological target: Man(a1-2)Man(a1-2)Man(a1-6)[Man(a1-3)]Man
Outline: as §1

[10] = biological target: Man(a1-2)Man(a1-3)Man
Outline: as §1

[11] = biological target: Man(a1-2)Man(a1-3)[Man(a1-2)Man(a1-6)]Man
Outline: as §1

[12] = biological target: Man(a1-2)Man(a1-3)[Man(a1-2)Man(a1-6)]Man(a1-6)[Man(a1-2)Man(a1-2)Man(a1-3)]Man
Outline: as §1

[13] = biological target: Man(a1-2)Man(a1-3)[Man(a1-2)Man(a1-6)]Man(a1-6)[Man(a1-2)Man(a1-2)Man(a1-3)]Man(b1-4)GlcNAc(b1-4)GlcNAc
Outline: as §1

[14] = biological target: Man(a1-2)Man(a1-3)[Man(a1-6)]Man(a1-6)[Man(a1-2)Man(a1-3)]Man(b1-4)GlcNAc(b1-4)GlcNAc
Outline: as §1

[15] = biological target: Man(a1-2)Man(a1-6)[Man(a1-3)]Man(a1-6)[Man(a1-2)Man(a1-2)Man(a1-3)]Man
Outline: as §1

[16] = biological target: Man(a1-2)Man(a1-6)[Man(a1-3)]Man(a1-6)[Man(a1-2)Man(a1-2)Man(a1-3)]Man(b1-4)GlcNAc(b1-4)GlcNAc
Outline: as §1

[17] = biological target: Man(a1-3)[Man(a1-6)]Man
Outline: as §1

[18] = biological target: Man(a1-3)[Man(a1-6)]Man(a1-6)[Man(a1-2)Man(a1-3)]Man(b1-4)GlcNAc(b1-4)GlcNAc
Outline: as §1

[19] = biological target: Man(a1-3)[Man(a1-6)]Man(a1-6)[Man(a1-3)]Man
Outline: as §1

[20] = biological target: Man(a1-3)[Man(a1-6)]Man(a1-6)[Man(a1-3)]Man(b1-4)GlcNAc(b1-4)GlcNAc
Outline: as §1

[21] = biological target: Man(a1-3)[Man(a1-6)]Man(b1-4)GlcNAc(b1-4)GlcNAc
Outline: as §1

[22] = biological target: Man(a1-3)[Man(a1-6)]Man(b1-4)GlcNAc(b1-4)[Fuc(a1-6)]GlcNAc
Outline: as §1

[23] = biological target: Man(a1-6)Man
Outline: as §1

[24] = biological target: Man(b1-4)GlcNAc
Outline: as §1

[25] = biological target: MurNAc(b1-4)GlcNAc
Outline: as §1

[26] = biological target: Neu5Ac(a2-3)Gal
Outline: as §1

[27] = biological target: Neu5Ac(a2-3)Gal(b1-3)GalNAc
Outline: as §1

[28] = biological target: Neu5Ac(a2-3)Gal(b1-3)GalNAc(b1-3)Gal(a1-4)Gal(b1-4)Glc
Outline: as §1

[29] = biological target: Neu5Ac(a2-3)Gal(b1-3)GalNAc(b1-3)Gal(b1-4)GlcNAc
Outline: as §1

[30] = biological target: Neu5Ac(a2-3)Gal(b1-3)GalNAc(b1-4)[Neu5Ac(a2-3)]Gal(b1-4)Glc
Outline: as §1

[31] = biological target: Neu5Ac(a2-3)Gal(b1-3)GalNAc(b1-4)[Neu5Ac(a2-8)Neu5Ac(a2-3)]Gal(b1-4)Glc
Outline: as §1

[32] = biological target: Neu5Ac(a2-3)Gal(b1-3)GalNAc6S
Outline: as §1

[33] = biological target: Neu5Ac(a2-3)Gal(b1-3)GlcNAc
Outline: as §1

[34] = biological target: Neu5Ac(a2-3)Gal(b1-3)GlcNAc(b1-2)Man
Outline: as §1

[35] = biological target: Neu5Ac(a2-3)Gal(b1-3)GlcNAc(b1-2)Man(a1-3)[GlcNAc(b1-4)][Neu5Ac(a2-3)Gal(b1-3)GlcNAc(b1-2)Man(a1-6)]Man(b1-4)GlcNAc(b1-4)GlcNAc
Outline: as §1

[36] = biological target: Neu5Ac(a2-3)Gal(b1-3)GlcNAc(b1-2)Man(a1-3)[Neu5Ac(a2-3)Gal(b1-3)GlcNAc(b1-2)Man(a1-6)]Man(b1-4)GlcNAc(b1-4)GlcNAc
Outline: as §1

[37] = biological target: Neu5Ac(a2-3)Gal(b1-3)GlcNAc(b1-3)Gal(b1-3)GlcNAc
Outline: as §1

[38] = biological target: Neu5Ac(a2-3)Gal(b1-3)GlcNAc(b1-3)Gal(b1-4)GlcNAc
Outline: as §1

[39] = biological target: Neu5Ac(a2-3)Gal(b1-3)GlcNAc(b1-3)GalNAc
Outline: as §1

[40] = biological target: Neu5Ac(a2-3)Gal(b1-3)GlcNAc(b1-4)Gal(b1-4)Glc
Outline: as §1

[41] = biological target: Neu5Ac(a2-3)Gal(b1-3)GlcNAc(b1-6)GalNAc
Outline: as §1

[42] = biological target: Neu5Ac(a2-3)Gal(b1-3)GlcNAc6S
Outline: as §1

[43] = biological target: Neu5Ac(a2-3)Gal(b1-3)[Fuc(a1-4)]GlcNAc
Outline: as §1

[44] = biological target: Neu5Ac(a2-3)Gal(b1-3)[Fuc(a1-4)]GlcNAc(b1-3)Gal(b1-3)[Fuc(a1-4)]GlcNAc
Outline: as §1

[45] = biological target: Neu5Ac(a2-3)Gal(b1-3)[Fuc(a1-4)]GlcNAc(b1-3)Gal(b1-4)[Fuc(a1-3)]GlcNAc
Outline: as §1

B1: LCA (Lens culinaris), P02870 (protein)
chain: MASLQTQMISFYLIFLSILLTTIFFFKVNSTETTSFSITKFSPDQKNLIFQGDGYTTKGKLTLTKAVKSTVGRALYSTPIHIWDRDTGNVANFVTSFTFVIDAPSSYNVADEFTFFIAPVDTKPQTGGGYLGVFNSKEYDKTSQTVAVEFDTFYNAAWDPSNKERHIGIDVNSIKSVNTKSWNLQNGERANVVIAFNAATNVLTVTLTYPNSLEEENVTSYTLNEVVPLKDVVPEWVRIGFSATTGAEFAAHEVHSWSFHSELGGTSSSKQAADA
Which “glycan array binding signal (z-score)” value [1] does the source give for B1 here?
The value was -0.217.

What about the “glycan array binding signal (z-score)” value [2] of the same binder?
Its value is -0.225.

And the “glycan array binding signal (z-score)” value [3]?
Its value is -0.215.

What about the “glycan array binding signal (z-score)” value [4] of the same binder?
Its value is -0.223.

And the “glycan array binding signal (z-score)” value [5]?
The value was -0.198.

And the “glycan array binding signal (z-score)” value [6]?
The value was -0.228.

What about the “glycan array binding signal (z-score)” value [7] of the same binder?
The value was -0.174.

And the “glycan array binding signal (z-score)” value [8]?
Its value is 1.41.

And the “glycan array binding signal (z-score)” value [9]?
The value was 2.06.

What about the “glycan array binding signal (z-score)” value [10] of the same binder?
The value was 1.09.

What about the “glycan array binding signal (z-score)” value [11] of the same binder?
Its value is 1.52.

What about the “glycan array binding signal (z-score)” value [12] of the same binder?
The value was 1.19.

And the “glycan array binding signal (z-score)” value [13]?
The value was 1.88.

And the “glycan array binding signal (z-score)” value [14]?
Its value is 2.09.

What about the “glycan array binding signal (z-score)” value [15] of the same binder?
Its value is 0.773.

And the “glycan array binding signal (z-score)” value [16]?
Its value is 2.81.

What about the “glycan array binding signal (z-score)” value [17] of the same binder?
Its value is -0.08.

What about the “glycan array binding signal (z-score)” value [18] of the same binder?
Its value is 2.82.

And the “glycan array binding signal (z-score)” value [19]?
The value was -0.213.

And the “glycan array binding signal (z-score)” value [20]?
The value was 0.11.

And the “glycan array binding signal (z-score)” value [21]?
Its value is 0.57.

And the “glycan array binding signal (z-score)” value [22]?
The value was 6.07.

And the “glycan array binding signal (z-score)” value [23]?
Its value is -0.192.

What about the “glycan array binding signal (z-score)” value [24] of the same binder?
Its value is -0.225.

And the “glycan array binding signal (z-score)” value [25]?
The value was -0.251.

And the “glycan array binding signal (z-score)” value [26]?
Its value is -0.194.

And the “glycan array binding signal (z-score)” value [27]?
The value was -0.238.

What about the “glycan array binding signal (z-score)” value [28] of the same binder?
Its value is -0.157.

And the “glycan array binding signal (z-score)” value [29]?
The value was -0.208.

And the “glycan array binding signal (z-score)” value [30]?
Its value is -0.227.

And the “glycan array binding signal (z-score)” value [31]?
Its value is -0.23.

What about the “glycan array binding signal (z-score)” value [32] of the same binder?
Its value is -0.218.

What about the “glycan array binding signal (z-score)” value [33] of the same binder?
Its value is -0.15.

What about the “glycan array binding signal (z-score)” value [34] of the same binder?
Its value is -0.157.

What about the “glycan array binding signal (z-score)” value [35] of the same binder?
The value was -0.233.

And the “glycan array binding signal (z-score)” value [36]?
The value was -0.262.

And the “glycan array binding signal (z-score)” value [37]?
The value was -0.22.

And the “glycan array binding signal (z-score)” value [38]?
Its value is -0.236.

What about the “glycan array binding signal (z-score)” value [39] of the same binder?
Its value is -0.207.

And the “glycan array binding signal (z-score)” value [40]?
Its value is -0.247.

What about the “glycan array binding signal (z-score)” value [41] of the same binder?
The value was -0.238.

And the “glycan array binding signal (z-score)” value [42]?
Its value is -0.071.

What about the “glycan array binding signal (z-score)” value [43] of the same binder?
The value was -0.216.

And the “glycan array binding signal (z-score)” value [44]?
Its value is -0.206.

And the “glycan array binding signal (z-score)” value [45]?
Its value is -0.204.
